The assay deals with freshly isolated primary murine renal tubules. The assay can be described thus: Spontaneous LDH release over time of freshly isolated kidney tubules (glycine medium). The class given is cell-based. The note with it: mice injected 2 mg/kg 30 min before kidney removal. The procedure: The LDH release of cells or of freshly isolated kidney tubules was measured according to manufacturers’ instructions at indicated time points. In brief, an aliquot of the supernatant was taken and Lysis Solution was added for 45 min to induce maximal LDH release before another aliquot of the supernatant was taken. Subsequently, the supernatants were incubated with CytoTox 96® Reagent for 15 min protected from light at room temperature before adding Stop Solution. Absorbance was measured at 490 nm.
Primary murine renal tubules were isolated following a modified previously established protocol. […] Kidney slices of each kidney were transferred in 2 ml reaction tube containing 2 mg/ml collagenase type II in incubation solution (48 μg/ml trypsin inhibitor, 25 μg/ml DNAse I, 140 mM NaCl, 0.4 mM KH2PO4, 1.6 mM K2HPO4 · 3 H2O, 1 mM MgSO4 · 7 H2O, 10 mM CH3COONa · 3 H2O, 1 mM α-ketoglytarate and 1.3 mM Ca-gluconate) and digested for 5 min at 37 °C, 850 rpm. Due to the presence of damaged tubules, the first resulting supernatant was discarded and 1 ml of 2 mg/ml collagenase type II in incubation solution was added to the kidney slices and digested for 5 min at 37 °C, 850 rpm. The supernatant was collected and transferred in a 2 ml reaction tube containing 1 ml ice-cold sorting solution (0.5 mg/ml bovine albumin in incubation solution). The reaction tubes were left on ice for the tubules to precipitate. The supernatant was removed and the tubules were washed twice with ice-cold incubation solution. Once the tubules precipitated the supernatant was removed and the ice-cold sorting solution was added (the volume was adjusted depending on the number of samples needed for the experiment). Tubules were distributed in a twenty-four-well plate containing Dulbecco’s Modified Eagle Medium F-12 Nutrient Mixture without phenol red (DMEM/F12, Thermo Fisher), supplemented with 0.01 mg/ml recombinant human insulin, 5.5 μg/ml human transferrin, 0.005 μg/ml sodium selenite (Na2SeO3) (ITS without linoleic acid, Sigma Aldrich), 50 nM hydrocortisone, 100 U/ml penicillin, and 100 μg/ml streptomycin (Pen/Strep, Thermo Fisher).
All of the experiments performed contain a negative control to assess LDH release at 0 h of incubation as a quality control. No more than 10% LDH release in these negative controls was tolerated. […] Isolated murine renal tubules were placed in twenty four-well plates containing the respective agents diluted in Dulbecco’s Modified Eagle Medium F-12 Nutrient Mixture without phenol red (DMEM/F12, Thermo Fisher), supplemented with 0.01 mg/ml recombinant human insulin, 5.5 μg/ml human transferrin, 0.005 μg/ml Na2SeO3 (ITS without linoleic acid, Sigma Aldrich), 50 nM hydrocortisone, 100 U/ml penicillin, and 100 μg/ml streptomycin (Pen/Strep, Thermo Fisher). After the indicated time points, the medium of each well was collected and tubules were prepared for an LDH release assay. Images of the treated murine renal tubules were obtained using a 20x/0.30 PH1 objective on a Leica DMi1 microscope.
In general terms: Release of lactate dehydrogenase indicates damage to the cell membrane.

These results are taken from PMC8292346, “Dysfunction of the key ferroptosis-surveilling systems hypersensitizes mice to tubular necrosis during acute kidney injury” (Nature Communications, 2021).

`CCOC(=O)c1ccc(NC2CCCCC2)c(N)c1` [Fer-1, ferrostatin-1] came in with an LDH release (0 hours) of 5.29%; an LDH release (2 hours) of 12.36%; an LDH release (4 hours) of 14.81%; an LDH release (6 hours) of 19.61%; an LDH release (8 hours) of 18.71%; an LDH release (24 hours) of 64.13%.
`CN1C(=O)C(Cc2c[nH]c3c(Cl)cccc23)NC1=S` (stereo not drawn) [Nec-1f]: the LDH release by setting is: (0 hours) 6.47%; (2 hours) 15.29%; (4 hours) 17.46%; (6 hours) 20.94%; (8 hours) 23.28%; (24 hours) 68.19%.
